Measurements: US20250382344A1, “Soluble GLP1/GIP/NPY2 Receptor Triple Agonists” (Boehringer Ingelheim International GmH, priority 2024, published 2025)
Read-outs that look alike come from different tables or passages of the source. Part of at least one peptide drawing is inferred or uncertain, most often the ends. At least one compound was matched to its structure with a doubt left.

Experiments:
hGLP1R = molecular target: T1, hGLP1R (Homo sapiens, UniProt P43220); assay: hGLP1R CreLuc assay in 0.5% and 100% plasma (HEK-293 CRE-luciferase reporter cells); assay type: cell-based; settings: 0.5% human plasma, HEK-293 reporter cells, read-out: hGLP1R 0.5% hP
T1 construct: expressed in transfected cells; host or cells: HEK-293 CRE-luciferase reporter cells
T1 sequence (P43220 24-463): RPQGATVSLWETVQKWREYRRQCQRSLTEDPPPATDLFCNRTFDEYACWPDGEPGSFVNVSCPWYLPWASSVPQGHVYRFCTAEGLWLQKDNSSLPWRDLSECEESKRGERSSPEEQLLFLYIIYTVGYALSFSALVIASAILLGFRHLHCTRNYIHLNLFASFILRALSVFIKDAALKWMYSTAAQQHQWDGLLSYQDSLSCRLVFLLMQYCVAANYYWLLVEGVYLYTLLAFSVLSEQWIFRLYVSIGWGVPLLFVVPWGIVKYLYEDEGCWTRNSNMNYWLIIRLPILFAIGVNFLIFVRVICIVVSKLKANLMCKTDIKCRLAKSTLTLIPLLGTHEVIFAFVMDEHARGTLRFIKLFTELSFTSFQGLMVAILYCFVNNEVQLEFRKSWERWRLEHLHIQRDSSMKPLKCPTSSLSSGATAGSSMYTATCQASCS
Excerpt: (§1) CHO and HEK-293 recombinant cell lines express a luciferase reporter gene under control of the CAMP responsive element (CRE). As a second recombinant protein the GLP-1 and NPY2 receptors were expressed in the reporter gene HEK cells, and the GIP receptor was expressed in the reporter gene CHO cells, respectively. Stimulation of these recombinant cells with an agonist leads to an increase of intracellular CAMP levels. In the presence of CAMP, the transcription factor CRE binding protein (CREB) binds to the CRE and to the CREB binding protein (CBP), which leads to transcription of the luciferase reporter gene. Peptides upon serial-dilution in 100% DMSO were transferred into 384-well assay plates with 5 μl pre-dispensed assay buffer (1×HBSS, 20 mM HEPES, pH7.4 supplemented with 0.5% human plasma) using acoustic dispensing on a Labcyte ECHO. Cryo-preserved transgenic reporter gene cells were thawed in assay buffer. 20 μl (10.000 cells/well) were added to the plate with the peptides and incubated for 4 hours at 37° C. in a humidified incubator. Following incubation, assay plates are equilibrated to room temperature, followed by addition of 25 μl of Bright-Glo™ Luciferase reagent, incubation at room temperature for 10 minutes and analysis of luminescence (Envision Reader). […] EC50 values were calculated by non-linear regression using sigmoid concentration-response with variable slope.
(§2) The same assays were run in the presence of 100% plasma with no additional buffer constituents.

hGIPR = molecular target: T2, hGIPR (Homo sapiens, UniProt P48546); assay: hGIPR CreLuc assay in 0.5% and 100% plasma (CHO CRE-luciferase reporter cells); assay type: cell-based
T2 construct: expressed in transfected cells; host or cells: CHO CRE-luciferase reporter cells
T2 sequence (P48546 22-466): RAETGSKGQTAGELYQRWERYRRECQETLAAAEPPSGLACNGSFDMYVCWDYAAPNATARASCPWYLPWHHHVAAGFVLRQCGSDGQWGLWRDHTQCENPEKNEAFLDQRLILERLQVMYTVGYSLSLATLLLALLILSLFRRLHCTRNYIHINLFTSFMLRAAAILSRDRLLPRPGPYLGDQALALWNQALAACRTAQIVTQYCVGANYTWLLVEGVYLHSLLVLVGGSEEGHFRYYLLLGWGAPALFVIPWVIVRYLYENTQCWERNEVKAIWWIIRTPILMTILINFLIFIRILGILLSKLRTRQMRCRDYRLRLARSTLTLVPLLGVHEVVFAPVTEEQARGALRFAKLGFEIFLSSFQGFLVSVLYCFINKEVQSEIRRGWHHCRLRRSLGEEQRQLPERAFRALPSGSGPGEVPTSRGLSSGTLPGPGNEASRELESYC
Excerpt: as §1, §2

[1] = 0.5% human plasma, read-out: hGIPR 0.5% hP

| Compound | EC50 (hGLP1R) | EC50 (hGIPR; [1]) | EC50 (hGIPR; 100% human plasma, read-out: hGIPR 100% hP) |
| --- | --- | --- | --- |
| CC[C@H](C)[C@H](NC(=O)[C@H](CCCCN)NC(=O)[C@H](CCC(=O)O)NC(=O)[C@H](CC(C)C)NC(=O)C(C)(C)NC(=O)[C@@H](NC(=O)[C@H](CO)NC(=O)[C@H](Cc1ccc(O)cc1)NC(=O)[C@H](CC(=O)O)NC(=O)[C@H](CO)NC(=O)[C@@H](NC(=O)[C@H](Cc1ccccc1)NC(=O)[C@@H](NC(=O)CNC(=O)[C@H](CCC(=O)O)NC(=O)C(C)(C)NC(=O)[C@@H](N)Cc1ccc(O)cc1)[C@@H](C)O)[C@@H](C)O)[C@@H](C)CC)C(=O)N[C@@H](C)C(=O)N[C@@H](CCC(N)=O)C(=O)NC(C)(C)C(=O)N[C@@H](C)C(=O)N[C@@H](Cc1ccccc1)C(=O)N[C@H](C(=O)N[C@@H](CCCNC(=N)N)C(=O)N[C@@H](Cc1c[nH]cn1)C(=O)N[C@@H](CC(C)C)C(=O)N[C@H](C(=O)N[C@@H](CC(N)=O)C(=O)N[C@@H](CCCCNC(=O)[C@@H](N)CCCCNC(=O)CC[C@H](NC(=O)CC[C@H](NC(=O)CC[C@H](NC(=O)CC[C@H](NC(=O)CC[C@H](NC(=O)CC[C@H](NC(=O)CCCCCCCCCCCCCCCCC(=O)O)C(=O)O)C(=O)O)C(=O)O)C(=O)O)C(=O)O)C(=O)O)C(=O)NC(C)(C)C(=O)N[C@H](C(=O)N[C@@H](CCCNC(=N)N)C(=O)N[C@@H](CCC(N)=O)C(=O)N[C@@H](CCCNC(=N)N)C(=O)N[C@@H](Cc1ccc(O)cc1)C(N)=O)[C@@H](C)O)[C@@H](C)CC)C(C)C [Compound 24, Y-Aib-E-G-T-F-T-S-D-Y-S-I-Aib-L-E-K-I-A-Q-Aib-A-F-V-R-H-L-I-N-K(1,3)-Aib-T-R-Q-R-Y-NH2.C18DA-gGlu-gGlu-gGlu-gGlu-gGlu-gGlu-eLys(1,2)] | 0.2 nM | 1 nM |  |
| CC[C@H](C)[C@H](NC(=O)[C@H](CC(C)C)NC(=O)[C@H](Cc1c[nH]cn1)NC(=O)[C@H](CCCNC(=N)N)NC(=O)[C@@H](NC(=O)[C@H](Cc1ccccc1)NC(=O)[C@H](C)NC(=O)C(C)(C)NC(=O)[C@H](CCC(N)=O)NC(=O)[C@H](C)NC(=O)[C@H](CCC(=O)O)NC(=O)[C@H](CCCCN)NC(=O)[C@H](CCC(=O)O)NC(=O)[C@H](CC(C)C)NC(=O)C(C)(C)NC(=O)[C@@H](NC(=O)[C@H](CO)NC(=O)[C@H](Cc1ccc(O)cc1)NC(=O)[C@H](CC(=O)O)NC(=O)[C@H](CO)NC(=O)[C@@H](NC(=O)[C@H](Cc1ccccc1)NC(=O)[C@@H](NC(=O)CNC(=O)[C@H](CCC(=O)O)NC(=O)C(C)(C)NC(=O)[C@@H](N)Cc1ccc(O)cc1)[C@@H](C)O)[C@@H](C)O)[C@@H](C)CC)C(C)C)C(=O)N[C@@H](CC(N)=O)C(=O)N[C@@H](CCCCNC(=O)[C@@H](N)CCCCNC(=O)[C@H](CCC(=O)O)NC(=O)CC[C@H](NC(=O)CC[C@H](NC(=O)CC[C@H](NC(=O)CC[C@H](NC(=O)CC[C@H](NC(=O)CCCCCCCCCCCCCCCCCCC(=O)O)C(=O)O)C(=O)O)C(=O)O)C(=O)O)C(=O)O)C(=O)NC(C)(C)C(=O)N[C@H](C(=O)N[C@@H](CCCNC(=N)N)C(=O)N[C@@H](CCC(N)=O)C(=O)N[C@@H](CCCNC(=N)N)C(=O)N[C@@H](Cc1ccc(O)cc1)C(N)=O)[C@@H](C)O [Compound 28, Y-Aib-E-G-T-F-T-S-D-Y-S-I-Aib-L-E-K-E-A-Q-Aib-A-F-V-R-H-L-I-N-K(1,3)-Aib-T-R-Q-R-Y-NH2.C20DA-gGlu-gGlu-gGlu-gGlu-gGlu-gGlu-eLys(1,2)] | 8 nM | 19.3 nM |  |
| CC[C@H](C)[C@H](NC(=O)[C@H](CC(C)C)NC(=O)[C@H](Cc1c[nH]cn1)NC(=O)[C@H](CCCNC(=N)N)NC(=O)[C@@H](NC(=O)[C@H](Cc1ccccc1)NC(=O)[C@H](C)NC(=O)C(C)(C)NC(=O)[C@H](C)NC(=O)[C@H](C)NC(=O)[C@H](CCC(N)=O)NC(=O)[C@H](CCCCN)NC(=O)[C@H](CCC(=O)O)NC(=O)[C@H](CC(C)C)NC(=O)C(C)(C)NC(=O)[C@@H](NC(=O)[C@H](CO)NC(=O)[C@H](Cc1ccc(O)cc1)NC(=O)[C@H](CC(=O)O)NC(=O)[C@H](CO)NC(=O)[C@@H](NC(=O)[C@H](Cc1ccccc1)NC(=O)[C@@H](NC(=O)CNC(=O)[C@H](CCC(=O)O)NC(=O)C(C)(C)NC(=O)[C@@H](N)Cc1ccc(O)cc1)[C@@H](C)O)[C@@H](C)O)[C@@H](C)CC)C(C)C)C(=O)N[C@@H](CC(N)=O)C(=O)N[C@@H](CCCCNC(=O)[C@@H](N)CCCCNC(=O)CC[C@H](NC(=O)CC[C@H](NC(=O)CC[C@H](NC(=O)CC[C@H](NC(=O)CC[C@H](NC(=O)CC[C@H](NC(=O)CCCCCCCCCCCCCCCCC(=O)O)C(=O)O)C(=O)O)C(=O)O)C(=O)O)C(=O)O)C(=O)O)C(=O)NC(C)(C)C(=O)N[C@H](C(=O)N[C@@H](CCCNC(=N)N)C(=O)N[C@@H](CCC(N)=O)C(=O)N[C@@H](CCCNC(=N)N)C(=O)N[C@@H](Cc1ccc(O)cc1)C(N)=O)[C@@H](C)O [Compound 111, Y-Aib-E-G-T-F-T-S-D-Y-S-I-Aib-L-E-K-Q-A-A-Aib-A-F-V-R-H-L-I-N-K(1,3)-Aib-T-R-Q-R-Y-NH2.C18DA-gGlu-gGlu-gGlu-gGlu-gGlu-gGlu-eLys(1,2)] |  | 0.3 nM |  |
| CC[C@H](C)[C@H](NC(=O)[C@H](CC(C)C)NC(=O)[C@H](Cc1c[nH]cn1)NC(=O)[C@H](CCCNC(=N)N)NC(=O)[C@@H](NC(=O)[C@H](Cc1ccccc1)NC(=O)[C@H](C)NC(=O)C(C)(C)NC(=O)[C@H](CCC(N)=O)NC(=O)[C@H](C)NC(=O)[C@H](CCC(N)=O)NC(=O)[C@H](CCCCN)NC(=O)[C@H](CCC(=O)O)NC(=O)[C@H](CC(C)C)NC(=O)C(C)(C)NC(=O)[C@H](CCC(=O)O)NC(=O)[C@H](CO)NC(=O)[C@H](Cc1ccc(O)cc1)NC(=O)[C@H](CC(=O)O)NC(=O)[C@H](CO)NC(=O)[C@@H](NC(=O)[C@H](Cc1ccccc1)NC(=O)[C@@H](NC(=O)CNC(=O)[C@H](CCC(=O)O)NC(=O)C(C)(C)NC(=O)[C@@H](N)Cc1ccc(O)cc1)[C@@H](C)O)[C@@H](C)O)C(C)C)C(=O)N[C@@H](CC(N)=O)C(=O)N[C@@H](CCCCNC(=O)[C@@H](N)CCCCNC(=O)CC[C@H](NC(=O)CC[C@H](NC(=O)CC[C@H](NC(=O)CC[C@H](NC(=O)CC[C@H](NC(=O)CC[C@H](NC(=O)CCCCCCCCCCCCCCCCC(=O)O)C(=O)O)C(=O)O)C(=O)O)C(=O)O)C(=O)O)C(=O)O)C(=O)NC(C)(C)C(=O)N[C@H](C(=O)N[C@@H](CCCNC(=N)N)C(=O)N[C@@H](CCC(N)=O)C(=O)N[C@@H](CCCNC(=N)N)C(=O)N[C@@H](Cc1ccc(O)cc1)C(N)=O)[C@@H](C)O [Compound 112, Y-Aib-E-G-T-F-T-S-D-Y-S-E-Aib-L-E-K-Q-A-Q-Aib-A-F-V-R-H-L-I-N-K(1,3)-Aib-T-R-Q-R-Y-NH2.C18DA-gGlu-gGlu-gGlu-gGlu-gGlu-gGlu-eLys(1,2)] |  | 0.5 nM | 10.3 nM |
